Test results: patent US20220204643A1 (published 2022)
Like-named read-outs stand apart in the source and are kept apart here.

T1: catenin alpha like 1, transcript variant 1 (human, UniProt Q9UBT7 1-734)
T1 construct: HuProt array protein, full-length recombinant from yeast; also called CTNNAL1
T1 sequence: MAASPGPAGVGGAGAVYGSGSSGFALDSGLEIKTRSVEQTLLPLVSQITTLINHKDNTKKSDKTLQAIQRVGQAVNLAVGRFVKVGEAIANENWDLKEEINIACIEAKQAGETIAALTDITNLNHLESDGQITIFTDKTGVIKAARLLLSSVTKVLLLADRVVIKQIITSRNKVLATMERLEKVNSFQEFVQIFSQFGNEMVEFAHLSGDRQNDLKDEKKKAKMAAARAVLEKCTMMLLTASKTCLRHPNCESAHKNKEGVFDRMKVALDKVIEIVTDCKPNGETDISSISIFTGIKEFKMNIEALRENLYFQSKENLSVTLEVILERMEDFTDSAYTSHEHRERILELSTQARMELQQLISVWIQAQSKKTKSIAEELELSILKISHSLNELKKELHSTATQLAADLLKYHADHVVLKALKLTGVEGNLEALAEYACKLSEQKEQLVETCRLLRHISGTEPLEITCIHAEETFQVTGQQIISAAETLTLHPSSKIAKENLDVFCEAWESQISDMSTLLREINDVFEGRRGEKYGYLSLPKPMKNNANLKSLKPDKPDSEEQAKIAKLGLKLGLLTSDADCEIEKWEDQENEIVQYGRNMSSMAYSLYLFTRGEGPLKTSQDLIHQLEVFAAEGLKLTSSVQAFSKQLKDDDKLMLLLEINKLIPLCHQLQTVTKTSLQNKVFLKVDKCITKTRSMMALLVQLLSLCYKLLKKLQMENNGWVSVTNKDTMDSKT

T2: catenin alpha like 1, transcript variant 1 (human, UniProt Q9UBT7 1-734)
T2 construct: on protein array; also called CTNNAL1
T2 sequence: T1 sequence

B1: TBRE1023 (antibody, V domains shown)
VH: PVQLVQSGAEVKKPGSSVKVSCKASGGTFSSYAISWVRQAPGQGLEWMGGIIPIFGTANYAQKFQGRVTITADESTSTAYMELSSLRSEDTAVYYCARDPMWVSYAFDIWGQGTMVTVSS
VL: [… about 100 residues …]
notes: detected with anti-human IgG Fc
B2: TBRE1023 (antibody, V domains shown)
VH: B1 VH
VL: [… about 100 residues …]
notes: VH/VL only

Legend:
[1] = target: T1, catenin alpha like 1, transcript …
[2] = target: T2, catenin alpha like 1, transcript …; experiment: protein array

Row | Binder | binding result [1] | binding result [2]
1 | B1 | binds | 
2 | B2 |  | binds
